The other results are listed elsewhere or left out. Sequences were assembled here from the parent chain. Inactive controls read about 0.05.
B1: TEV protease; numbered along this chain (parent)
chain: MGESLFKGPRDYNPISSSICHLTNESDGHTTSLYGIGFGPFIITNKHLFRRNNGTLVVQSLHGVFKVKDTTTLQQHLVDGRDMIIIRMPKDFPPFPQKLKFREPQREERICLVTTNFQTKSMSSMVSDTSCTFPSGDGIFWKHWIQTKDGQCGSPLVSTRDGFIVGIHSASNFTNTNNYFTSVPKNFMELLTNQEAQQWVSGWRLNADSVLWGGHKVFMVKPEEPFQPVKEATQL

Variants of: B1
Assay: raw area under fraction-flipped curve 0-4 h after induction (AUC4h, not background-subtracted), DNA-recorder readout of cleavage of the substrate (dimensionless); higher = more cleavage of the substrate by the protease variant
Details: temperature: 34 °C; time window: 0-4 h after rhamnose induction
Protocol: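 In vivo DNA recorder in E. coli TOP10(DE3) ΔrhaA at 34 °C. Each TEVp single-site mutant (parent TEVp 0) is paired with a single-site variant of the 7-mer TEVs (canonical ENLYFQ|S). The substrate sits between flexible linkers in a Bxb1-sfGFP-TEVs-SsrA fusion, so cleavage stabilises Bxb1 and speeds flipping of a recombination array, read by NGS. The value is the raw area under the fraction-flipped curve over 0-4 h after rhamnose induction (AUC4h), with ≥20 reads per time point. It is not background-subtracted; inactive controls average about 0.047.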
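Note: Bxb1 expression induced with 0.2% (w/v) L-rhamnose at OD600 near 0.5, cultures sampled hourly, flipped fraction per protease–substrate barcode pair counted by paired-end Illumina sequencing.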

| Variant | area with substrate ENLYFAS | area with substrate ENLYFCS | area with substrate ENLYFDS | area with substrate ENLYFES | area with substrate ENLYFFS | area with substrate ENLYFGS | area with substrate ENLYFHS | area with substrate ENLYFIS | area with substrate ENLYFKS | area with substrate ENLYFLS | area with substrate ENLYFMS | area with substrate ENLYFNS | area with substrate ENLYFPS | area with substrate ENLYFRS | area with substrate ENLYFSS | area with substrate ENLYFTS | area with substrate ENLYFWS | area with substrate ENLYFYS | area with substrate ENLYFVS |
| --- | --- | --- | --- | --- | --- | --- | --- | --- | --- | --- | --- | --- | --- | --- | --- | --- | --- | --- | --- |
| S18V | 0.0515 | 0.0654 | 0.0539 | 0.0726 | 0.0685 | 0.0637 | 0.0559 | 0.0547 | 0.0655 | 0.0716 | 0.0644 | 0.058 | 0.0434 | 0.0481 | 0.0508 | 0.0459 | 0.0707 | 0.0607 | – |
| S18P | 0.102 | 0.044 | – | 0.0486 | – | – | 0.0273 | 0.0624 | 0.053 | 0.0535 | 0.0512 | 0.0452 | 0.0619 | 0.0508 | – | 0.0669 | 0.057 | 0.0637 | – |
| D27V | 0.0501 | 0.0647 | 0.0601 | 0.0595 | – | 0.0476 | – | 0.0476 | 0.0808 | 0.0739 | 0.0561 | 0.0589 | – | – | – | 0.0633 | 0.0536 | – | 0.0605 |
| G2Q | 0.0414 | 0.0839 | 0.0505 | 0.062 | 0.0703 | – | – | 0.0413 | 0.059 | 0.0724 | 0.0798 | – | – | – | – | 0.0337 | – | 0.0558 | 0.0623 |
| T23Q | 0.0602 | 0.0636 | – | 0.0666 | 0.0595 | – | 0.0247 | 0.0569 | 0.065 | 0.0619 | 0.0667 | – | 0.0449 | 0.0547 | – | 0.0335 | 0.0861 | 0.0652 | – |
| T23M | 0.0589 | 0.0525 | – | 0.0619 | 0.0848 | – | 0.0692 | 0.0592 | 0.0694 | 0.0544 | 0.0613 | 0.0655 | 0.0636 | 0.0638 | 0.0607 | 0.06 | 0.0502 | – | 0.0538 |
| D11R | 0.0599 | 0.0473 | 0.0679 | 0.0608 | 0.0575 | – | 0.046 | 0.061 | 0.0622 | 0.0651 | 0.0605 | 0.0625 | 0.0673 | 0.147 | 0.0602 | 0.0368 | 0.0416 | 0.0478 | 0.0619 |
| D11I | 0.0536 | – | – | 0.0457 | – | – | 0.0618 | 0.0554 | – | 0.0656 | – | 0.0795 | – | 0.063 | – | 0.0862 | 0.0634 | 0.0477 | – |
| D11K | 0.0529 | 0.0714 | – | 0.0591 | 0.0406 | 0.0471 | – | 0.0701 | 0.0527 | – | 0.0679 | – | 0.0658 | – | 0.0501 | 0.0577 | 0.0533 | 0.0482 | – |
| S32N | 0.0544 | – | – | 0.0685 | 0.0735 | 0.0644 | – | 0.0421 | 0.0581 | – | 0.0622 | 0.052 | 0.0634 | 0.0688 | 0.0552 | 0.0594 | 0.0527 | 0.0692 | 0.0482 |
| S26V | 0.0502 | 0.0635 | 0.0704 | 0.048 | 0.0862 | 0.0601 | 0.06 | 0.0543 | 0.0585 | 0.0659 | 0.0512 | 0.0601 | 0.0567 | – | – | 0.0526 | 0.0522 | – | 0.0452 |
| C20E | 0.0471 | 0.0332 | – | 0.0416 | 0.0681 | 0.0422 | 0.0348 | 0.0459 | 0.0376 | 0.058 | 0.0389 | 0.0549 | 0.0521 | 0.0455 | 0.0496 | 0.048 | 0.0392 | 0.0294 | – |
| T31G | 0.0454 | 0.0558 | – | 0.0485 | 0.0669 | – | 0.0509 | 0.0466 | 0.0568 | – | 0.0645 | 0.04 | 0.0614 | 0.0513 | 0.0658 | – | 0.0543 | 0.0292 | 0.0531 |
| T31R | 0.042 | 0.0498 | – | 0.061 | 0.0637 | – | – | 0.0587 | 0.0583 | 0.0583 | 0.0635 | 0.0761 | 0.0692 | 0.0531 | – | – | – | – | 0.0117 |
| L33F | 0.0715 | 0.067 | 0.0621 | 0.0653 | 0.0534 | – | 0.0612 | 0.0548 | 0.0715 | 0.0531 | 0.074 | 0.069 | 0.0587 | 0.09 | – | 0.0555 | 0.0487 | – | 0.0616 |
| L33V | 0.0576 | 0.0727 | 0.0626 | 0.0719 | 0.0657 | 0.0713 | 0.0655 | 0.0754 | 0.0632 | – | 0.0594 | 0.0662 | 0.0612 | 0.064 | 0.0547 | – | – | 0.0398 | – |
| L33Q | 0.0715 | 0.0641 | 0.0396 | – | 0.0703 | – | 0.0652 | 0.0612 | 0.0637 | 0.0536 | 0.0655 | 0.0431 | 0.0514 | 0.0567 | 0.058 | 0.065 | – | – | 0.0524 |
| L22A | 0.0536 | 0.0481 | 0.0487 | 0.0272 | 0.0803 | 0.045 | 0.0457 | 0.0613 | 0.0502 | 0.0487 | 0.0513 | 0.0506 | 0.0554 | 0.0576 | – | 0.0549 | 0.0445 | 0.0573 | 0.0567 |
| H29Q | 0.0507 | 0.0564 | 0.0618 | 0.0551 | 0.0698 | 0.059 | 0.0742 | 0.0582 | 0.0709 | – | 0.0354 | 0.0507 | 0.0756 | – | 0.0404 | 0.0604 | – | – | – |
| H29W | 0.0547 | 0.0563 | 0.0634 | 0.0651 | 0.0612 | 0.0608 | 0.0589 | 0.0569 | – | 0.0575 | 0.0807 | – | – | 0.0595 | 0.0603 | – | 0.058 | 0.0436 | – |
| G37L | 0.0492 | 0.0686 | – | – | – | – | 0.0386 | 0.0523 | 0.0525 | – | 0.0459 | 0.0399 | 0.0674 | – | 0.0672 | 0.0375 | 0.0527 | – | 0.0486 |
| G37R | 0.0437 | 0.0575 | 0.0538 | 0.0607 | 0.0714 | 0.0504 | 0.054 | 0.047 | 0.0452 | 0.0534 | 0.0463 | 0.0456 | 0.0579 | 0.0599 | 0.0759 | 0.0519 | – | 0.062 | 0.0696 |
| H21K | 0.0576 | 0.0636 | 0.0653 | 0.065 | 0.0678 | 0.0713 | 0.0491 | 0.0518 | 0.0588 | 0.0642 | 0.0566 | 0.0865 | 0.0522 | 0.0556 | – | 0.0672 | 0.0573 | – | – |
| H21S | 0.0492 | 0.0643 | – | 0.0569 | 0.0633 | 0.0591 | – | 0.0678 | 0.0633 | 0.0642 | 0.0737 | 0.0777 | 0.0373 | 0.0532 | – | 0.0632 | – | 0.0445 | 0.0575 |
